Consider 172 sequences from publication PMC6212790.

The list shows a part of the results. At the low end of the ranking the order means little.

In the assay the target is T1, GST-Rok-C97-191 (UniProt O34857).
T1 sequence: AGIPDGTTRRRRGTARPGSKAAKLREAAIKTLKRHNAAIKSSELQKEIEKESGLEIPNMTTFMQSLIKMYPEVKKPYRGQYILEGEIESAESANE
In words: protein binding microarray.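 Further: rank score from −0.5 (least bound) to 0.5 (best bound).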 The settings on record: Rok is a gene silencer of Bacillus subtilis; high values mean tight binding; most listed sequences are background and not binding sites; double strand, one strand shown.
In turn, CCGACGGC showed a binding signal of -0.199 E-score.

Regarding AACAAATC, the binding signal is -0.115 E-score.

On to AATACTAC, for which the binding signal worked out at 0.383 E-score.

Turning to CAACAATC, the binding signal is 0.17 E-score.

As to AGGATCAT, the binding signal was -0.0623 E-score.

GTGCTTCA showed a binding signal of -0.138 E-score.

AAATTAAC came in with a binding signal of 0.306 E-score.

Sequence TAATAGTA had a binding signal of 0.423 E-score.

The sequence CCAACGGG yielded a binding signal of -0.315 E-score.

As to ATCTTAAG, the binding signal was determined as 0.0123 E-score.

The sequence AGCATATG gave a binding signal of 0.175 E-score.

CCTGTACA showed a binding signal of 0.017 E-score.

With AGGCATAA, the binding signal stood at 0.0458 E-score.

AATGCGCT showed a binding signal of 0.166 E-score.

GTAAGAAA displayed a binding signal of 0.309 E-score.

CATCGAGA came in with a binding signal of -0.0556 E-score.

AGCCGAAT registered a binding signal of -0.182 E-score.

Take AAATACGA: the binding signal stood at 0.0254 E-score.

Take ATTGCGCC: the binding signal was -0.134 E-score.

Regarding CCTTACTA, the binding signal is 0.154 E-score.

CATCGGAC gave a binding signal of 0.0521 E-score.

In turn, TCAAGTGA yielded a binding signal of -0.0808 E-score.

Sequence ATAGGCAT had a binding signal of -0.211 E-score.

CATGGGTA: the binding signal was 0.101 E-score.

For AGACGATG, the binding signal is -0.0748 E-score.

AAGGTGGA returned a binding signal of -0.19 E-score.

For the sequence ACGAGCTC, the binding signal is -0.262 E-score.

On to ACACAATC, for which the binding signal is -0.0311 E-score.

TACGGTGA had a binding signal of 0.106 E-score.

With TCAAGCCA, the binding signal is -0.14 E-score.

In the case of AGTTTCCA, the binding signal was 0.208 E-score.

GGGAAACA displayed a binding signal of -0.0425 E-score.

For TCCAGCCA, the binding signal is -0.0215 E-score.

CAGCTAAA registered a binding signal of 0.0943 E-score.

ACGATCAA yielded a binding signal of -0.0674 E-score.

For ACGCGGAC, the binding signal was -0.14 E-score.

AGCCCGCT gave a binding signal of -0.168 E-score.

Take AACACGCC: the binding signal was -0.251 E-score.

Turning to AGTCCACA, the binding signal is -0.159 E-score.

Sequence ATAACAAG displayed a binding signal of 0.041 E-score.

In the case of AGACGTAC, the binding signal stood at 0.0127 E-score.

In turn, CAATGGAG gave a binding signal of -0.117 E-score.

For GGTTGCGA, the binding signal worked out at 0.017 E-score.

Consider ACCCGCCA, for which the binding signal is -0.252 E-score.

ACCCTCAA: the binding signal is -0.196 E-score.

CTTTCGAC gave a binding signal of -0.176 E-score.

For AAGTTATG, the binding signal was determined as 0.276 E-score.

For the sequence CGCTGGAA, the binding signal was -0.132 E-score.

Turning to ATGCGCAG, the binding signal was -0.0952 E-score.

AGTGACTG returned a binding signal of 0.0386 E-score.

AACGGCTA: the binding signal came to 0.0484 E-score.

Sequence CCGCAGAG displayed a binding signal of -0.0443 E-score.

AAACCAGC: the binding signal is -0.0922 E-score.

Sequence CATATAAC returned a binding signal of 0.177 E-score.

For the sequence CGAGGAAG, the binding signal was -0.101 E-score.

GTAAAGAA: the binding signal is -0.0367 E-score.

For CGTAATAC, the binding signal was determined as 0.245 E-score.

The sequence TCAACCAA showed a binding signal of -0.0448 E-score.

The sequence CGCCTGGC registered a binding signal of -0.292 E-score.

For the sequence GGGGTTCA, the binding signal is -0.161 E-score.

With ACCGAGTG, the binding signal stood at 0.0374 E-score.

The sequence CCTTTCAG returned a binding signal of -0.274 E-score.

In turn, CGGCATTA displayed a binding signal of 0.107 E-score.

Sequence ACGGCCGG came in with a binding signal of -0.0827 E-score.

As for AACGCGCA, the binding signal was -0.0753 E-score.

As to ACAGACGG, the binding signal was determined as 0.000749 E-score.

With GCTTTTCA, the binding signal was 0.0633 E-score.

Consider CACAATCC, for which the binding signal is -0.0201 E-score.

In turn, GTCCGAAC yielded a binding signal of -0.0482 E-score.

In turn, ACAATTGT gave a binding signal of 0.183 E-score.

Sequence ACTAGGAT displayed a binding signal of 0.211 E-score.

GCAGGGTA: the binding signal is -0.153 E-score.

The sequence GACGAGCA returned a binding signal of -0.242 E-score.

Regarding AGGGGAAA, the binding signal is -0.141 E-score.

CGACGGTC registered a binding signal of -0.0957 E-score.

Sequence CAGCAAAG yielded a binding signal of -0.231 E-score.

As for AACAGTCG, the binding signal was -0.126 E-score.

With AAAATCCT, the binding signal came to 0.0937 E-score.

Sequence ACCCTAGA returned a binding signal of 0.0383 E-score.

As for CCTCCGGA, the binding signal is -0.16 E-score.

On to TAAATGCA, for which the binding signal turned out to be 0.289 E-score.

The sequence CTGGATGC returned a binding signal of -0.208 E-score.

CTGGACGC came in with a binding signal of -0.147 E-score.

Regarding ACAATGGG, the binding signal was -0.0478 E-score.

Sequence GTGCCCAA displayed a binding signal of -0.21 E-score.

Sequence TACGACGA gave a binding signal of 0.132 E-score.

For the sequence AGCAGCGC, the binding signal was -0.357 E-score.

In turn, AAGAGTAA gave a binding signal of 0.129 E-score.

On to GAGTGGCC, for which the binding signal was -0.275 E-score.

CTTCCCTA had a binding signal of 0.0507 E-score.

For TCGCATCA, the binding signal is -0.011 E-score.

Turning to AGCTCCCT, the binding signal was -0.00716 E-score.

In turn, ATTTACTC came in with a binding signal of 0.234 E-score.

In the case of GGCTGCAC, the binding signal is -0.191 E-score.

For GCCTAAGC, the binding signal is -0.303 E-score.

Turning to ACGGACGG, the binding signal is -0.218 E-score.

In the case of CCCGGAAG, the binding signal is -0.223 E-score.

On to CTCAAAAA, for which the binding signal is -0.0271 E-score.

With CCAAGATA, the binding signal was found to be 0.236 E-score.

In the case of CCAAAGGC, the binding signal was -0.323 E-score.

On to CAATCTTA, for which the binding signal was found to be 0.172 E-score.

In the case of ATAACCCC, the binding signal is -0.0751 E-score.

For AGCCCAGA, the binding signal was -0.113 E-score.

The sequence AAGGCGGC gave a binding signal of -0.303 E-score.

In turn, CGTTCCGA returned a binding signal of -0.149 E-score.

Regarding GGACGAGA, the binding signal was -0.297 E-score.

Regarding AACTGGCA, the binding signal amounted to 0.0501 E-score.

For the sequence AGGGGATA, the binding signal was -0.103 E-score.

AGGAGTCA had a binding signal of -0.125 E-score.

As for TGATATCA, the binding signal turned out to be 0.0885 E-score.

GCGACCCC yielded a binding signal of -0.347 E-score.

ATTTCATC yielded a binding signal of 0.153 E-score.

Sequence TCAAAACA returned a binding signal of -0.175 E-score.

Sequence GAGAGAAC registered a binding signal of 0.0649 E-score.

As for TACCCGAA, the binding signal is 0.0653 E-score.

For GGTCTCTA, the binding signal stood at 0.0453 E-score.

On to ACAAAAGC, for which the binding signal came to 0.0767 E-score.

For CATCCGAA, the binding signal was -0.234 E-score.

In the case of CCTAGCAC, the binding signal was 0.0425 E-score.

Regarding GAATGGCC, the binding signal is -0.0392 E-score.

CCACGGAA returned a binding signal of 0.0498 E-score.

Take GGGGCGCA: the binding signal is -0.176 E-score.

Consider GTACATAA, for which the binding signal turned out to be 0.328 E-score.

As for CTTAAACC, the binding signal was -0.121 E-score.

Take ATCGCTTA: the binding signal is 0.189 E-score.

For CGGCTTCA, the binding signal is -0.239 E-score.

Turning to CACTCCCA, the binding signal was -0.155 E-score.

Consider CGTAGTGC, for which the binding signal is -0.0672 E-score.

Take ACGCAAGT: the binding signal is -0.0612 E-score.

As to CACTTGCC, the binding signal is -0.249 E-score.

For the sequence CCTTCCGC, the binding signal was -0.233 E-score.

AGGCGCTA yielded a binding signal of -0.139 E-score.

As to GCATTTTA, the binding signal is 0.18 E-score.

In turn, ACCGCAAG returned a binding signal of -0.109 E-score.

Sequence CATATGTA displayed a binding signal of 0.36 E-score.

As to GTATCGAA, the binding signal came to 0.0967 E-score.

The sequence AAAATCAA showed a binding signal of 0.128 E-score.

Turning to ATCAGCCA, the binding signal was -0.0137 E-score.

Take CAGCAGCA: the binding signal was -0.111 E-score.

As for AACATACT, the binding signal is 0.0962 E-score.

Consider ACACAGAG, for which the binding signal is -0.0594 E-score.

Sequence AGGTTGCG displayed a binding signal of -0.0431 E-score.

In turn, CCTTGAAG came in with a binding signal of -0.164 E-score.

The sequence GGTAAAAA came in with a binding signal of 0.379 E-score.

Sequence ACATGTAT registered a binding signal of 0.225 E-score.

Sequence GGTCCTTA gave a binding signal of 0.0575 E-score.

Consider TAACGCCA, for which the binding signal was -0.113 E-score.

As for CCGGATGC, the binding signal was -0.207 E-score.

In the case of CATTACCA, the binding signal is 0.171 E-score.

Sequence ATCTGCAC came in with a binding signal of -0.138 E-score.

The sequence GGCCCCCA returned a binding signal of -0.428 E-score.

In turn, CCGGGATC registered a binding signal of -0.161 E-score.

In turn, GCCGCCGC displayed a binding signal of -0.279 E-score.

In the case of CGCTGGTC, the binding signal was -0.152 E-score.

In the case of ACCTTGGA, the binding signal is -0.0509 E-score.

GTGGAAAA came in with a binding signal of 0.00209 E-score.

The sequence AGGATTTC yielded a binding signal of -0.0498 E-score.

Take TATCTTCA: the binding signal was 0.216 E-score.

Sequence CGCCTCGA gave a binding signal of -0.0915 E-score.

Consider ACTGTTTG, for which the binding signal came to 0.109 E-score.

Regarding TCAGCGCA, the binding signal is -0.0835 E-score.

Turning to CCGAAATC, the binding signal was -0.0351 E-score.

With ATCTGGAG, the binding signal is -0.162 E-score.

With CAGCCCGC, the binding signal is -0.298 E-score.

The sequence AGGATCTC displayed a binding signal of 0.0324 E-score.

Regarding CTATACTC, the binding signal was 0.173 E-score.

Take ACGCTCTA: the binding signal was found to be 0.138 E-score.

ATTCCCCA came in with a binding signal of 0.00649 E-score.

In turn, CATCAAAG had a binding signal of 0.0174 E-score.

Consider ACGGCGTA, for which the binding signal amounted to 0.0787 E-score.

For the sequence GATTACCC, the binding signal is -0.211 E-score.

ACGAGGGA: the binding signal was -0.207 E-score.
